The results in this text go back to the antibiotic and cytotoxicity screens of Wong et al. (2023).

The other results are listed elsewhere or left out.

In one experiment the test system is HSkMC. Description: cytotoxicity call (relative viability < 0.9). The note with it: 10 µM.
Another experiment concerns HepG2. Put plainly: cytotoxicity call (relative viability < 0.9). Particulars: 10 µM.
The test system of another experiment is S. aureus RN4220. Description: growth inhibition call (relative growth <= 0.2). Particulars: 50 µM.

With `C[C@H](CO)N1C[C@H](C)[C@H](CN(C)C(=O)Nc2ccc3c(c2)OCO3)OCCCC[C@H](C)Oc2ccc(NC(=O)Cc3ccccc3)cc2C1=O`, the cytotoxicity call in the experiment with HSkMC and in the experiment on HepG2 was “inactive” each time. In addition, the growth inhibition call in the experiment with S. aureus RN4220 was “inactive”.
As to `COc1cccc(S(=O)(=O)N(C)C[C@H]2Oc3ncc(Br)cc3C(=O)N([C@H](C)CO)C[C@H]2C)c1`, the cytotoxicity call in the experiment on HSkMC and with HepG2 was “inactive” each time. In the experiment on S. aureus RN4220, the growth inhibition call is “inactive”.
For the compound `C[C@@H]1CCCCO[C@H](CN(C)Cc2ccc(C(F)(F)F)cc2)[C@H](C)CN([C@@H](C)CO)C(=O)c2cc(NC(=O)Nc3ccc4c(c3)OCO4)ccc2O1`, the cytotoxicity call with HSkMC was “inactive”. In addition, the cytotoxicity call in the experiment with HepG2 was “active”. Besides, the growth inhibition call in the experiment on S. aureus RN4220 is “inactive”.
For `COC1=C(OC)C(=O)C(C/C=C(\C)CC/C=C(\C)CC/C=C(\C)CC/C=C(\C)CC/C=C(\C)CC/C=C(\C)CC/C=C(\C)CC/C=C(\C)CC/C=C(\C)CCC=C(C)C)=C(C)C1=O`, the cytotoxicity call in the experiment on HSkMC and in the experiment on HepG2 was “inactive” throughout. Moreover, in the experiment on S. aureus RN4220, the growth inhibition call is “inactive”.
On to `CC(C)NC(=O)Nc1ccc2c(c1)C(=O)N([C@H](C)CO)C[C@@H](C)[C@@H](CN(C)S(=O)(=O)c1cn(C)cn1)O2`, for which the cytotoxicity call in the experiment on HSkMC and in the experiment with HepG2 was “inactive” each time. In the experiment on S. aureus RN4220, the growth inhibition call was “inactive”.
In the case of `COc1cccc(NC(=O)N(C)C[C@H]2Oc3ncc(C#Cc4cccnc4)cc3C(=O)N([C@H](C)CO)C[C@H]2C)c1`, the cytotoxicity call in the experiment with HSkMC and with HepG2 was “inactive” in each case. In addition, the growth inhibition call with S. aureus RN4220 is “inactive”.
As for `FC(F)(F)Oc1ccccc1`, the cytotoxicity call with HSkMC and in the experiment with HepG2 was “inactive” throughout. Also, the growth inhibition call with S. aureus RN4220 was “inactive”.
In the case of `CCCC(=O)Nc1ccc2c(c1)C(=O)N(C)C[C@@H](OC)[C@@H](C)CN(S(=O)(=O)c1cn(C)cn1)[C@H](C)CO2`, the cytotoxicity call in the experiment with HSkMC and in the experiment on HepG2 was “inactive” throughout. Besides, the growth inhibition call in the experiment with S. aureus RN4220 was “inactive”.
For `CN1C(=O)c2cc(NC(=O)c3cccs3)ccc2OC[C@@H]2O[C@@H](CC(=O)NCCN3CCCCC3)CC[C@H]21`, the cytotoxicity call with HSkMC and in the experiment on HepG2 was “inactive” each time. In addition, the growth inhibition call in the experiment with S. aureus RN4220 is “inactive”.
Turning to `C[C@@H]1CN([C@@H](C)CO)C(=O)c2cc(NC(=O)CCC(F)(F)F)ccc2O[C@@H](C)CCCCO[C@@H]1CN(C)S(=O)(=O)c1cccs1`, the cytotoxicity call in the experiment on HSkMC and with HepG2 was “inactive” throughout. In addition, the growth inhibition call with S. aureus RN4220 is “inactive”.
Regarding `C[C@@H]1CCCCO[C@H](CN(C)Cc2ccc3c(c2)OCO3)[C@@H](C)CN([C@@H](C)CO)C(=O)c2cc(NS(=O)(=O)c3ccc(F)cc3)ccc2O1`, the cytotoxicity call in the experiment with HSkMC was “inactive”. Also, the cytotoxicity call with HepG2 is “active”. Also, the growth inhibition call in the experiment with S. aureus RN4220 is “inactive”.
Regarding `C[C@H](CO)N1C[C@H](C)[C@H](CN(C)CC2CCCCC2)Oc2ccc(NC(=O)CCCCCC(=O)Nc3ccccc3N)cc2C1=O`, the cytotoxicity call with HSkMC is “inactive”. In addition, the cytotoxicity call in the experiment on HepG2 was “active”. In addition, in the experiment on S. aureus RN4220, the growth inhibition call is “inactive”.
For `Cc1ccc(S(=O)(=O)N(C)C[C@H]2Oc3ccc(NS(=O)(=O)c4cccs4)cc3C(=O)N([C@H](C)CO)C[C@H]2C)cc1`, the cytotoxicity call in the experiment on HSkMC and with HepG2 was “inactive” each time. For the same compound, the growth inhibition call with S. aureus RN4220 is “inactive”.
As for `C=CC[n+]1ccccc1/C=N/O`, the cytotoxicity call in the experiment with HSkMC and with HepG2 was “inactive” in each case. Also, the growth inhibition call with S. aureus RN4220 is “inactive”.
Regarding `Cc1noc(C)c1NC(=O)Nc1ccc2c(c1)CC(=O)N([C@@H](C)CO)C[C@@H](C)[C@@H](CN(C)Cc1ccc(Cl)c(Cl)c1)O2`, the cytotoxicity call in the experiment on HSkMC and in the experiment on HepG2 was “inactive” each time. Further, the growth inhibition call in the experiment on S. aureus RN4220 was “inactive”.
`C[C@H]1CN([C@@H](C)CO)C(=O)c2cccc(NC(=O)Nc3ccc(C(F)(F)F)cc3)c2O[C@H]1CN(C)Cc1ccc(C(=O)O)cc1`: the cytotoxicity call in the experiment with HSkMC and in the experiment on HepG2 was “inactive” in each case. Moreover, in the experiment with S. aureus RN4220, the growth inhibition call is “inactive”.
For the compound `COCC#Cc1ccc2c(c1)O[C@@H](CN(C)C(=O)COC)[C@@H](C)CN([C@@H](C)CO)S2(=O)=O`, the cytotoxicity call in the experiment on HSkMC and in the experiment on HepG2 was “inactive” in each case. Besides, in the experiment with S. aureus RN4220, the growth inhibition call was “inactive”.
Regarding `CN1C(=O)c2cc(NC(=O)Cc3cccs3)ccc2OC[C@@H]2O[C@@H](CC(=O)NCCc3ccncc3)CC[C@@H]21`, the cytotoxicity call in the experiment on HSkMC and with HepG2 was “inactive” throughout. Moreover, the growth inhibition call with S. aureus RN4220 is “inactive”.
On to `C[C@H](CO)N1C[C@H](C)[C@H](CN(C)S(=O)(=O)c2cccs2)OCCCC[C@H](C)Oc2ccc(NC(=O)Nc3cccc4ccccc34)cc2C1=O`, for which the cytotoxicity call with HSkMC was “active”. The cytotoxicity call in the experiment with HepG2 is “inactive”. Further, in the experiment with S. aureus RN4220, the growth inhibition call is “inactive”.
In the case of `CN(C)CCCCNC(=O)[C@@H]1C[C@@H]2C(=O)N[C@@H](CCCCN(C)C)C(=O)N2[C@@H]1c1cccc(OCCO)c1`, the cytotoxicity call with HSkMC and with HepG2 was “inactive” each time. The growth inhibition call in the experiment on S. aureus RN4220 is “inactive”.
For `COC(=O)c1cncn1C`, the cytotoxicity call in the experiment on HSkMC and in the experiment with HepG2 was “inactive” in each case. For the same compound, in the experiment on S. aureus RN4220, the growth inhibition call is “inactive”.
In the case of `Cn1c(N)c(NC(=O)c2cccs2)c(=O)[nH]c1=O`, the cytotoxicity call in the experiment with HSkMC and in the experiment on HepG2 was “inactive” throughout. Moreover, the growth inhibition call in the experiment on S. aureus RN4220 is “inactive”.
Take `O=C(c1cccnc1)N1CCOCC1`: the cytotoxicity call in the experiment with HSkMC was “inactive”. The cytotoxicity call with HepG2 was “active”. Moreover, the growth inhibition call in the experiment on S. aureus RN4220 is “inactive”.
For the compound `C[C@@H]1CCCCO[C@H](CN(C)CC2CCCCC2)[C@H](C)CN([C@@H](C)CO)C(=O)c2cc(NC(=O)Nc3ccc(C(F)(F)F)cc3)ccc2O1`, the cytotoxicity call in the experiment on HSkMC and with HepG2 was “active” in each case. Also, the growth inhibition call with S. aureus RN4220 was “inactive”.
On to `NC(=O)c1ncn(C2OC(CO)C(O)C2O)c1O` (centres undefined), for which the cytotoxicity call in the experiment with HSkMC and in the experiment on HepG2 was “inactive” each time. Besides, in the experiment with S. aureus RN4220, the growth inhibition call was “inactive”.
On to `C[C@H](CO)N1C[C@H](C)[C@@H](CN(C)S(C)(=O)=O)OCCCC[C@H](C)Oc2ccc(N(C)C)cc2C1=O`, for which the cytotoxicity call in the experiment on HSkMC (human skeletal muscle cells) and with HepG2 was “inactive” throughout. Further, the growth inhibition call with S. aureus RN4220 was “inactive”.
Consider `COc1ccc(CN(C)C[C@@H]2OCCCC[C@@H](C)Oc3ccc(NC(=O)Nc4ccc(C(F)(F)F)cc4)cc3C(=O)N([C@H](C)CO)C[C@@H]2C)cc1`, for which the cytotoxicity call with HSkMC and in the experiment on HepG2 was “active” in each case. Also, in the experiment on S. aureus RN4220, the growth inhibition call was “inactive”.
In the case of `COc1ccc(CNC(=O)N(C)C[C@@H]2OCc3ccccc3-c3c(n(C)c4ccccc34)C(=O)N([C@H](C)CO)C[C@H]2C)cc1`, the cytotoxicity call with HSkMC and in the experiment on HepG2 was “inactive” in each case. Besides, in the experiment with S. aureus RN4220, the growth inhibition call is “inactive”.
